{"source": "PubChem BioAssay AID485360", "about": "(National Center for Advancing Translational Sciences (NCATS), 2010)", "note": "The whole screen tested about 230,000 compounds, of which about 1,500 (0.65%) were called active. Inconclusive means that the source gave no clear call. Such entries were picked first, then a sample of the others. Calls follow the shape of the dose curve; as a rule, active = well fitted inhibition curve with a large enough effect; inconclusive = small, poorly fitted or top-dose-only effect; inactive = no such curve, though single readings can be large or run the other way. Where the call is inconclusive, the potency comes from a doubtful curve fit. % is scaled to controls: 0 for no effect and ±100 for the full control effect; potency is read from the fitted curve at half-maximal effect; tags tell the direction and shape of the fitted curve."}
{"target": "Lethal(3)malignant brain tumor-like protein 1 (Homo sapiens) (UniProt Q9Y468)", "sequence (Q9Y468 whole entry, looked up)": "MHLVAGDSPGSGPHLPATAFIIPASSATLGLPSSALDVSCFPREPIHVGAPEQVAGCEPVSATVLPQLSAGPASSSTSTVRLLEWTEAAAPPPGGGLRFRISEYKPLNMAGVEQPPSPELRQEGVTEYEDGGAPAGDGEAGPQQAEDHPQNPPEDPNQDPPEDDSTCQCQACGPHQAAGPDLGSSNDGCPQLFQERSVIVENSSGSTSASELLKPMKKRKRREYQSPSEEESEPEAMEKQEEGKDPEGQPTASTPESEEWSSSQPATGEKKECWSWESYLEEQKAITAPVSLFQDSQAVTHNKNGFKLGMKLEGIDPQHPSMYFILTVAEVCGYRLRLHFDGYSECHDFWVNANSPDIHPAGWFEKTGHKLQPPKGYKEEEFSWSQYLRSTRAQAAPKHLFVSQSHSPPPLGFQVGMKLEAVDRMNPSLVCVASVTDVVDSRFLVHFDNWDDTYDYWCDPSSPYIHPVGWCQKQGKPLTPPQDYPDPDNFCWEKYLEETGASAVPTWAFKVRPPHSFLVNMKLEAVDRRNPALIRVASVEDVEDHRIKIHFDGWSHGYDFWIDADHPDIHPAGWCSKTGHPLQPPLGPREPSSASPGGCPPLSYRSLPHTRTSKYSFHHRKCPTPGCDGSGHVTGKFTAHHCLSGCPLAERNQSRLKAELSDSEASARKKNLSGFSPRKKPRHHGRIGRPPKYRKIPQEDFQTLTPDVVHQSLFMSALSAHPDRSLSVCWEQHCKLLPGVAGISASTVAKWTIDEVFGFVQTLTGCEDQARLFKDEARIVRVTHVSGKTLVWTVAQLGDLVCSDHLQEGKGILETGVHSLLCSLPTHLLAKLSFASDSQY", "test": "qHTS Assay for the Inhibitors of L3MBTL1; also: nearly all actives have a fitted effect of over 60% in size", "conditions": "AlphaScreen L3MBTL1–H3K9me1 peptide binding; activity, negative = inhibition: at 57.1 µM (top of the series)", "procedure,_shortened": "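AlphaScreen assay: L3MBTL1 (50 nM final) was preincubated 30 min at room temperature with biotinylated H3(1-15)K9me1 peptide (75 nM final), then 30 min with library compounds; streptavidin donor and nickel chelate acceptor beads (10 ug/mL final) added, 30 min dark.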"}
{"compound": "CC(C)(C)NC(=O)COc1ccc(CNCc2ccccn2)cc1", "Potency": "inconclusive: 25.1 µM [inhibitor, single point]"}
{"compound": "CSc1nc2c(c(=O)[nH]1)C(c1ccccc1)C1=C(CC(C)(C)CC1=O)N2", "note": "(stereo not drawn)", "Potency": "inactive"}
{"compound": "Cc1cc(C)c2nc(NNC(=O)c3cc(-c4cccs4)nc4ccccc34)sc2c1", "Potency": "inconclusive: 11.2 µM [inhibitor, partial curve]"}
{"compound": "Cc1cc(C(=O)Nc2ccccn2)cs1", "Potency": "inconclusive: 28.2 µM [inhibitor, single point]"}
{"compound": "Nc1[nH]n(-c2ccccc2)c(=O)c1N=Nc1ccc2ncsc2c1", "Potency": "inconclusive: 7.94 µM [inhibitor, partial curve]"}
{"compound": "COc1ccc(Nc2c([N+](=O)[O-])ccc3c2=NC2(CCCCC2)N=3)cc1", "Potency": "inconclusive: 2.51 µM [inhibitor, partial curve, poor fit]"}
{"compound": "c1ccc(-c2nc3nonc3nc2-c2ccccc2)cc1", "Potency": "inconclusive: 22.4 µM [inhibitor, partial curve]"}
{"compound": "C/C(=N/Nc1ccc([N+](=O)[O-])cc1)c1c[nH]c2ccccc12", "Potency": "inconclusive: 5.62 µM [inhibitor, single point]"}
{"compound": "CC(=O)Nc1nc(C(=O)O)cs1", "Potency": "inconclusive: 2.51 µM [inhibitor, full curve]"}
{"compound": "Cn1nc(-c2ccc(Cl)cc2)nc2c(=O)n(C)c(=O)nc1-2", "Potency": "inconclusive: 1.58 µM [inhibitor, full curve]"}
{"compound": "NS(=O)(=O)c1ccc(CNC(=O)Cc2cccs2)cc1", "Potency": "inconclusive: 35.5 µM [inhibitor, single point]"}
{"compound": "CCOC(=O)[C@H]1[C@H]2COc3ccc(OC)cc3[C@@H]2N2C(=O)c3cc(OC)ccc3NC(=O)[C@@]12C", "Potency": "inactive"}
{"compound": "O=C(O)CSc1c(O)c2ccccc2[nH]c1=O", "Potency": "inactive"}
{"compound": "COc1ccc2c(c1)c(=O)oc1cc(OCC(=O)N3CCC(C)CC3)ccc12", "Potency": "inconclusive: 6.31 µM [inhibitor, single point]"}
{"compound": "CC(=O)Nc1ccc(S(=O)(=O)NCC(=O)OCC(=O)N2CCN(c3ccccc3)CC2)cc1", "Potency": "inactive"}
{"compound": "CCn1c(SCC(=O)N/N=C/C=C\\c2ccco2)nc2ccccc21", "Potency": "active: 31.6 µM"}
{"compound": "S=C1NC2=C(CCCC2=C2SCCS2)C(c2ccccc2)N1", "note": "(stereo not drawn)", "Potency": "inconclusive: 39.8 µM [inhibitor, partial curve, poor fit]"}
{"compound": "O=S(=O)(c1ccc(-c2ccon2)s1)N1CCN(c2ccccn2)CC1", "Potency": "inconclusive: 10 µM [inhibitor, partial curve]"}
{"compound": "Oc1ccc2c(c1)C1CCCC1(N1CCOCC1)O2", "note": "(stereo not drawn)", "Potency": "active: 31.6 µM"}
{"compound": "Cc1nnc(Nc2ccc(S(N)(=O)=O)cc2)c2ccccc12", "Potency": "inactive"}
{"compound": "Cc1ccc(C)c(NC(=O)CN(C)C(=O)c2cc(C3CC3)nn2-c2ccccc2)c1", "Potency": "inactive"}
{"compound": "Cc1ccc(N=Cc2ccc(N(C)C)cc2)cc1", "Potency": "inactive"}
{"compound": "Cc1ccc2sc(NNC(=O)c3ccc4c(c3)OCCO4)nc2c1C", "Potency": "inconclusive: 35.5 µM [inhibitor, partial curve]"}
{"compound": "COc1ccccc1-c1ccc(/C=C2/C=C(CC(C)C)OC2=O)o1", "Potency": "inconclusive: 35.5 µM [inhibitor, partial curve]"}
{"compound": "O=C(NN1C(=O)C2C3C=CC(O3)C2C1=O)c1cccc(Br)c1", "note": "(stereo not drawn)", "activity, negative = inhibition": "inactive: -0.0434% [at 11.4 µM]"}
{"compound": "CN(C)c1ccc(C(CNC(=O)c2ccccc2)c2c[nH]c3ccccc23)cc1", "note": "(stereo not drawn)", "Potency": "inconclusive: 25.1 µM [inhibitor, single point]"}
{"compound": "CCOc1ccccc1NC(=S)Nc1ncccc1C", "Potency": "inconclusive: 39.8 µM [inhibitor, single point]"}
{"compound": "O=C(O)CSc1nc2ccccc2n1Cc1ccccc1", "Potency": "inactive"}
{"compound": "O=C(O)CSc1nc2ccc(C(=O)c3ccccc3)cc2[nH]1", "Potency": "inactive"}
{"compound": "NC(=O)COC(=O)c1ccc(C(=O)C(=O)c2ccccc2)cc1", "Potency": "inconclusive: 0.141 µM [inhibitor, full curve, poor fit]"}
{"compound": "Cc1nn2c3ccccc3n(C)c2nc1=O", "Potency": "inconclusive: 28.2 µM [inhibitor, partial curve, poor fit]"}
{"compound": "O=C(NCc1ccccn1)c1cccc(S(=O)(=O)N2CCc3ccccc32)c1", "Potency": "inconclusive: 39.8 µM [inhibitor, single point]"}
{"compound": "CCCc1nc(SC2CCCC2)c2c(=O)n(C)c(=O)n(C)c2n1", "Potency": "inconclusive: 39.8 µM [inhibitor, single point]"}
{"compound": "Cc1cccc2c1-c1sc(C(=O)Nc3cccc([N+](=O)[O-])c3C)cc1CO2", "Potency": "inconclusive: 25.1 µM [inhibitor, partial curve, poor fit]"}
{"compound": "CCOC(=O)NC(=O)CSc1ccc(S(=O)(=O)N(C)C2CCCCC2)cn1", "Potency": "inconclusive: 6.31 µM [inhibitor, single point]"}
{"compound": "CCSc1ccccc1C(=O)Nc1nncs1", "Potency": "inconclusive: 5.62 µM [inhibitor, full curve]"}
{"compound": "O=[N+]([O-])c1cccnc1N1CCN(Cc2ccc3c(c2)OCO3)CC1", "Potency": "inconclusive: 17.8 µM [inhibitor, partial curve]"}
{"compound": "CC1=NN(c2ccc(C)c(C)c2)C(=O)C1C(c1cccc(O)c1)C1C(=O)N(c2ccc(C)c(C)c2)N=C1C", "note": "(stereo not drawn)", "Potency": "inconclusive: 3.16 µM [inhibitor, full curve, poor fit]"}
{"compound": "CCOP(=O)(OCC)C(Nc1ccc([N+](=O)[O-])cc1)c1ccc(Cl)cc1", "note": "(stereo not drawn)", "Potency": "inconclusive: 11.2 µM [inhibitor, partial curve, poor fit]"}
{"compound": "NC(=S)n1[nH]c(-c2ccc([N+](=O)[O-])cc2)c(N=Nc2cccc([N+](=O)[O-])c2)c1=O", "Potency": "inconclusive: 3.55 µM [inhibitor, full curve]"}
{"compound": "Cc1ccc(S(=O)(=O)N2CCOCC2)cc1NC(=O)c1cc([N+](=O)[O-])ccc1N1CCOCC1", "Potency": "inactive"}
{"compound": "CCC1CCCCN1C(=O)CSc1nc2c([nH]c3ccccc32)c(=O)n1C", "note": "(stereo not drawn)", "Potency": "inconclusive: 3.55 µM [inhibitor, full curve]"}
{"compound": "CC1SCC(=O)N(CC(=O)NCCc2ccccc2)C1=O", "note": "(stereo not drawn)", "Potency": "inconclusive: 0.891 µM [inhibitor, full curve, poor fit]"}
